Measurements as given in PubChem BioAssay AID588855 (National Center for Advancing Translational Sciences (NCATS), 2011).
In all, about 410,000 compounds went through this assay and about 5,000 (1.2%) were called active. Inconclusive results, whose numbers are uncertain, are shown with a selection of clear calls. Calls follow the shape of the dose curve; as a rule, active = well fitted inhibition curve with a large enough effect; inconclusive = small, poorly fitted or top-dose-only effect; inactive = no such curve, though single readings can be large or run the other way. Potencies of inconclusive entries are doubtful fits and often do not repeat.

Experiment: qHTS for Inhibitors of TGF-b; also: nearly all actives have a fitted effect of over 65% in size
Conditions: HepG2 CAGA-GFP TGF-b/SMAD3 reporter, GFP fluorescence, 18 h, TGF-beta stimulated, 500 pg/mL final; series mostly up to 46.1 µM
In short: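 HEPG2 CAGA-GFP, 1000 cells/well; 2 h settle, 37 C; cpd via pin tool; TGF-b 500 pg/mL final; 18 h, 37 C; GFP imaging ex488/em500-530; %Activity normalised to -TGF-b and +DMSO controls; CRC fit, curve class.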
Potency is read from the fitted curve at half-maximal effect; tags tell the direction and shape of the fitted curve.

Compound | Potency
COc1ccc2c(c1)Cc1sc(NC(=O)c3ccccc3Br)nc1-2 | active: 7.08 µM
CN(C[C@H](Cc1ccccc1)N(C[C@H](Cc1ccccc1)N(CCC(C)(C)C)N=O)N=O)N=O | inactive
Cc1cc(OCC(=O)OCC(=O)NCc2ccc3c(c2)OCO3)ccc1Cl | inactive
O=S(=O)(c1ccc(F)c(F)c1F)N1CCN(C(=S)Nc2ccccc2)CC1 | inconclusive: 17.8 µM [inhibitor, single point]
CCc1nc2c(OCc3ccc(OC)cc3)cccn2c1N(C)C(=O)c1ccc(OC)cc1 | inconclusive: 35.5 µM [inhibitor, single point]
CCC1(c2ccccc2)NC(=S)N(c2cccc(C)c2C)N1 (stereo not given) | inactive
CCN1CCc2c(sc(NC(=O)c3ccc(C(=O)c4ccccc4)cc3)c2C(N)=O)C1 | inconclusive: 22.4 µM [inhibitor, single point]
O=C(Nc1ccccc1)OC1CCCCc2cccnc21 (stereo not given) | inactive
CC(=O)Nc1ccc(C(=O)N/N=C/c2ccccc2OC(=O)c2ccc(Cl)cc2)cc1 | inconclusive: 0.316 µM [inhibitor, full curve, poor fit]
O=C(CC1N=C2c3ccccc3N=C(SCC(=O)Nc3cccc(Cl)c3)N2C1=O)NCc1cccs1 (stereo not given) | inconclusive: 35.5 µM [inhibitor, single point]
N#CC(c1ccc(F)cc1)c1ccc(C(=O)c2ccccc2)cc1 (stereo not given) | inconclusive: 10 µM [inhibitor, single point]
COc1ccc(CCNC(=O)Cn2cc(S(=O)(=O)Cc3ccccc3F)c3ccccc32)cc1OC | inconclusive: 35.5 µM [inhibitor, single point]
CCOc1ccc(S(=O)(=O)/N=C(/Nc2ccc(OC)cc2)c2ccccc2)cc1 | inactive
CC1CCN(CCc2nc3cc(NC(=O)COc4ccc(Cl)cc4)ccc3n2C)CC1 | inconclusive: 35.5 µM [inhibitor, single point]
Cc1ccc(S(=O)(=O)N(CC(=O)c2ccccc2)C(=O)N2CCN(C)CC2)cc1 | inconclusive: 35.5 µM [inhibitor, single point]
Cc1cc(Nc2cccc(Cl)c2)nc(-c2ccccc2O)n1 | inconclusive: 35.5 µM [inhibitor, single point]
CC(C)c1ccc(C(=O)N(c2ccccn2)C(C)c2ccco2)cc1 (stereo not given) | inactive
Cn1c(=O)[nH]c(=O)c2c1nc(N1CCCCCC1)n2Cc1cccc2ccccc12 | inactive
COc1ccc(/C=C/C(=O)OCC(=O)NCc2ccco2)cc1OC | inconclusive: 14.1 µM [inhibitor, single point]
CCOC(=O)c1sc(NC(=O)c2ccc(C)o2)nc1C | inconclusive: 35.5 µM [inhibitor, single point]
CC(C)CC(NC(=O)c1cccs1)c1nnc(SCc2ccc(Cl)c(Cl)c2)n1C (stereo not given) | active: 5.62 µM
COc1ccc(C(=O)N[C@H](C(=O)Nc2nc3c(s2)CCCC3)C(C)C)cc1 | inconclusive: 5.62 µM [inhibitor, single point]

Compound | Potency
N#Cc1ccsc1NC(=O)COC(=O)c1cc2ccccc2cc1O | inconclusive: 8.91 µM [inhibitor, partial curve, poor fit]
C/C(=N\NC(=O)C1(C)CC1(Br)Br)c1ccc(NC(=O)C2CCC2)cc1 (stereo not given) | inconclusive: 35.5 µM [inhibitor, single point]
NC(=O)c1ccsc1NC(=O)c1ccc(N2CCCC2=O)cc1 | inconclusive: 20 µM [inhibitor, single point]
CCc1nc(NC(C)C)c2oc3ccccc3c2n1 | inconclusive: 15.8 µM [inhibitor, single point]
O=C(NCc1ccc(F)cc1)c1ccc(CS(=O)(=O)c2ccc(Cl)cc2)o1 | inconclusive: 6.31 µM [inhibitor, single point]
COc1ccc(/C=N/NC(=O)c2ccoc2C)cc1CN1CCN(c2ccc(F)cc2)CC1 | inconclusive: 35.5 µM [inhibitor, single point]
Cc1noc(C)c1C(=O)OCC(=O)c1c(N)n(CC(C)C)c(=O)n(C)c1=O | inconclusive: 0.1 µM [inhibitor, full curve, poor fit]
COc1cccc(NC(=O)[C@@H]2CCC(=O)N2C2OC(=O)c3ccccc32)c1 (stereo not given in full) | inactive
COc1ccc(C(=O)N2CCc3ccccc3C2)cc1S(=O)(=O)N1CCCC1 | inactive
Cc1nc2ccn(Cc3cccs3)c(=O)c2cc1C(=O)N1CCN(c2ccc(F)cc2)CC1 | inconclusive: 35.5 µM [inhibitor, single point]
COc1cccc(C2c3c(oc4ccccc4c3=O)C(=O)N2Cc2ccco2)c1 (stereo not given) | inconclusive: 35.5 µM [inhibitor, single point]
COc1cccc(C(C)=NNc2ccc([N+](=O)[O-])cc2[N+](=O)[O-])c1OC | inconclusive: 8.91 µM [inhibitor, partial curve, poor fit]
Cc1ncc(N=Nc2ccc(F)cc2)c(-c2ccc(Cl)cc2)n1 | inconclusive: 5.62 µM [inhibitor, single point]
Cc1cc(C(=O)CSc2nnc(-c3ccc4c(c3)OCO4)o2)c(C)n1-c1ccc(F)cc1 | inconclusive: 5.62 µM [inhibitor, single point]
CC(C)N(c1ccccc1)c1ccc(NC(=O)CCl)cc1 | inconclusive: 22.4 µM [inhibitor, single point]
CCN(CC)CCNC(=O)c1ccc(NC(=O)c2cccc(S(=O)(=O)N3c4ccccc4CC3C)c2)cc1 (stereo not given) | inconclusive: 22.4 µM [inhibitor, single point]
Cc1ccc(/C=C(\C#N)C(=O)Nc2ccccn2)o1 | inactive
COc1ccc(C(=O)CC(=O)Nc2ccc([N+](=O)[O-])cc2)cc1 | inconclusive: 22.4 µM [inhibitor, single point]
C=CCNC(=O)c1onc(CSc2ccc(F)cc2)c1C(=O)NCCOC | inconclusive: 0.251 µM [inhibitor, full curve]
COc1c(Cl)cccc1-c1cn2ccccc2n1 | inconclusive: 25.1 µM [inhibitor, single point]
O=C(CN(c1ccc(Cl)c(C(F)(F)F)c1)S(=O)(=O)c1ccccc1)N1CCc2ccccc2C1 | inconclusive: 14.1 µM [inhibitor, single point]
COCCOc1cc(Nc2nnc(C(F)(F)F)s2)c(Cl)cc1Cl | inconclusive: 35.5 µM [inhibitor, single point]

Compound | Potency
CCC(C(=O)Nc1ccsc1C(=O)OC)c1ccccc1 (stereo not given) | inactive
CC(C)Sc1nnc(NC(=O)CCc2ccccc2)s1 | inactive
CCCCOC(=O)c1ccc(NC(=O)c2cc(-c3ccccc3)on2)cc1 | inactive
CC(=O)c1ccc(C(=O)N(CCCN(C)C)c2nc3c(C)c(C)ccc3s2)cc1 | inconclusive: 17.8 µM [inhibitor, single point]
Cc1cccc(N2CCN(C(=O)CCCn3c(=O)[nH]c4ccsc4c3=O)CC2C)c1 (stereo not given) | inactive
Cc1onc(-c2c(Cl)cccc2Cl)c1/C(N)=N/OC(=O)C(C)(C)C | inconclusive: 35.5 µM [inhibitor, single point]
CCCCCCn1c(=O)n2n(c1=O)[C@@H]1CN(S(=O)(=O)c3ccc(C)cc3)C[C@]1(O)[C@@H](OC(=O)NCc1ccco1)C2 | inconclusive: 8.91 µM [inhibitor, partial curve, poor fit]
CCCNC(=O)c1ccc2c(=O)c(O)c(-c3cccc(Br)c3)[nH]c2c1 | inconclusive: 22.4 µM [inhibitor, partial curve, poor fit]
COc1ccccc1CNc1cc(-c2ccccc2)nc2nncn12 | inconclusive: 11.2 µM [inhibitor, partial curve, poor fit]
Cc1cccc(N2CCN(C(=O)C3CCCCC3)CC2)c1C | inconclusive: 35.5 µM [inhibitor, single point]
CC1=NN(c2nc(N)nc(/C(C#N)=C/c3ccc([N+](=O)[O-])o3)n2)C(C)(C)C1 | inconclusive: 35.5 µM [inhibitor, single point]
Cc1ccccc1S(=O)(=O)NC(=O)C1(C)CCN1C(=O)C1(c2ccccc2)CC1 (stereo not given) | inactive
Cc1ccc(OCCn2c(CNc3cccc(C)c3)nc3ccccc32)cc1 | active: 12.6 µM
O=C(NC1CCCCC1)C(c1ccccc1)N1CCC2(CC1)OCCO2 (stereo not given) | inconclusive: 14.1 µM [inhibitor, single point]
CC1(C)Cc2c(cnn2-c2ccc(F)cc2)C(NC(=O)c2ccc(=O)oc2)C1 (stereo not given) | inconclusive: 15.8 µM [inhibitor, single point]
Cn1ccc2c(N3c4ccccc4CCc4ccccc43)cc3c(c21)C1CCC3C1 (stereo not given) | inconclusive: 12.6 µM [inhibitor, partial curve, poor fit]
N#Cc1cc2c(nc1SCC(O)CS(=O)(=O)Cc1ccc(Cl)cc1)CCCC2 (stereo not given) | inconclusive: 22.4 µM [inhibitor, single point]
Cc1ccc(NC(=S)NC(NC(=O)c2ccco2)C(Cl)(Cl)Cl)cc1 (stereo not given) | inconclusive: 8.91 µM [inhibitor, partial curve]
Cc1ccc(C)c(N2CCN(C(=O)c3ccc(CS(=O)Cc4cccc(Cl)c4)o3)CC2)c1 (stereo not given) | inconclusive: 25.1 µM [inhibitor, single point]
Cc1ccc2nc(NC(=O)c3ccc(-c4nc5ccccc5s4)s3)sc2c1 | inconclusive: 12.6 µM [inhibitor, partial curve]
CC1(C)CC(=O)/C(=C\c2cccc([N+](=O)[O-])c2)C(C)(C)N1 | inconclusive: 22.4 µM [inhibitor, single point]
